PubChem BioAssay AID463173 (ICCB-Longwood Screening Facility, Harvard Medical School, 2010)
The whole screen tested about 52,000 compounds, of which about 4,300 (8.3%) were called active. No stated cut-off is given here; in the data, active means survival mostly below about 52% (no sharp cut-off); inactive means mostly above about 56%. The list shows a part of the results.

What follows are compounds tested on DeltatarO mutant (assay: growth inhibition of S. aureus wild type versus tarO mutant, primary screen, teichoic acid synthesis inhibitors, RN4220, OD600 (AID 463173)). Conditions: OD600, 18 h, hits give low values, screened at 18.75 µg/mL (by protocol).
Cc1cc2ncn(CCCCOc3ccccc3)c2cc1C was tested, and the survival was active: -4%. For CCc1nn2c(=O)cc(COC(=O)c3cccc(NC(=O)c4ccccc4Cl)c3)nc2s1, the survival was inactive: 80%. CCc1ccc2c(c1)c(=O)c(S(=O)(=O)c1ccc(F)cc1)cn2CC(=O)Nc1ccc(C)cc1C was tested, and the survival was inactive: 105%. For Cc1ccc(CNC(=O)C2CCCN(S(=O)(=O)c3cccc4nsnc34)C2)cc1 (stereo not drawn), the survival was inactive: 117%. CCCn1ccc2c(OCC(=O)NCc3ccc(C)cc3)cccc2c1=O was tested, and the survival was inactive: 103%. For CN1C(C(=O)Nc2ccc(F)cc2F)=CC(c2ccco2)=NS1(=O)=O, the survival was inactive: 86%. For O=C(CSCc1ccccc1Cl)N1CCN(c2ccc(F)cc2)CC1, the survival was active: 46%. Cc1nnc(NCc2ccccc2)c2c1nnn2Cc1ccccc1Cl was tested, and the survival was inactive: 92%. With Cc1cccn2c(=O)c(C(=O)NCCCN3CCCCC3C)c(O)nc12 (stereo not drawn) the survival was inactive: 95%. For Cc1cccc(C)c1NC(=O)c1oc2ccc3c(c2c1C)C(=O)CC(C)(C)O3, the survival was active: 42%. COc1ccccc1CNC(=O)C1CCCN(S(=O)(=O)c2ccc3c(c2)CCCN3C(C)=O)C1 (stereo not drawn) was tested, and the survival was active: 52%. O=C(Cn1ncc2c1-c1ccccc1OC2)N1CCN(c2ccccc2F)CC1 was tested, and the survival was inactive: 64%. In the case of CN1c2ccccc2Sc2cc(C=C(C#N)C#N)ccc21, the survival is reported as inactive: 108%. In the case of CCOC(=O)/C(C#N)=C/c1cc(Br)cs1, the survival is reported as inactive: 84%. With CCOC(=O)c1cccc(NC(=O)CN2C(=O)c3ccccc3Sc3ncccc32)c1 the survival was inactive: 100%. For COc1cc(-c2nnn(CC(=O)Nc3ccc(OC(F)(F)F)cc3)n2)cc(OC)c1OC, the survival was inactive: 67%. CCOC(=O)c1c(C)[nH]c(CCC(=O)Nc2cc(C)ccc2OC)c1C was tested, and the survival was inactive: 78%. For CC1CCC(NC(=O)c2ccc3c(c2)N(Cc2ccccc2)C(=O)c2ccccc2S3=O)CC1 (stereo not drawn), the survival was inactive: 104%. For Cc1ccc(C(=O)NCc2ccc(N(C)C)cc2)cc1NC(=O)c1nsc2ccccc12, the survival was inactive: 117%. For COc1cc(NC(=O)CC2C(=O)N(c3ccc(Cl)cc3)C(=O)N2Cc2cccs2)cc(OC)c1 (stereo not drawn), the survival was inactive: 85%. CCOC(=O)Cn1c(=O)n(CC2CCCO2)c2nc(-c3ccc(C(C)C)cc3)nc(C(N)=O)c21 (stereo not drawn) was tested, and the survival was active: 6%. For O=C(Nc1nnc(S(=O)(=O)Nc2ccccc2)s1)C1CCCCC1, the survival was active: 31%. In the case of COc1cc2c(-c3cc(Br)ccc3O)nc3c(c(C)nn3-c3ccccc3)c2cc1OC, the survival is reported as inactive: 77%. Cc1ccccc1N(C)S(=O)(=O)c1nnc(NC(=O)C(C)C)s1 was tested, and the survival was inactive: 69%. CCOC(=O)c1ccc(N2C(=O)c3n[nH]c(C)c3C2c2ccc(OCC)cc2)cc1 (stereo not drawn) was tested, and the survival was inactive: 52%. In the case of COc1ccc(-n2c(=O)c3ccccc3n(Cc3cccc(C)c3)c2=O)cc1, the survival is reported as inactive: 73%. For COc1cccc(Cn2c(CNS(=O)(=O)c3ccc(C(C)(C)C)cc3)nc3cccnc32)c1, the survival was inactive: 130%. For CCCN(c1ccc(C(C)C)cc1)S(=O)(=O)c1ccc2c(c1)oc(=O)n2CC(=O)OCC, the survival was inactive: 73%. COc1ccccc1N1CCN(C(=O)c2cc(S(=O)(=O)N3CCC(C)CC3)cn2C)CC1 was tested, and the survival was active: 32%. COc1ccc(-c2nc(CNC(=O)Nc3ccccc3)c(C)o2)cc1 was tested, and the survival was inactive: 70%. In the case of COc1ccc2c(C)c(CCC(=O)NCc3ccc(Cl)cc3)c(=O)oc2c1C, the survival is reported as inactive: 54%. With CCN(Cc1ccccc1)C(=O)c1nn(-c2ccc(OC)cc2)c(=O)c2c1c1ccccc1n2C the survival was inactive: 68%. With Cc1nn(-c2ccc(N3CCCC3)nn2)c(C)c1CCC(=O)N1CCN(c2ccccc2)CC1 the survival was inactive: 71%. In the case of Cc1ccccc1-c1nn2c(=O)cc(CN3CCN(S(=O)(=O)c4ccc(Cl)cc4)CC3)nc2s1, the survival is reported as inactive: 105%. COC(=O)C(C#N)C(c1cccnc1)c1c(C)[nH][nH]c1=O (stereo not drawn) was tested, and the survival was inactive: 90%. In the case of N#C/C(=C(\O)c1ccco1)c1nc2ccccc2[nH]1, the survival is reported as inactive: 98%. In the case of Cc1ccccc1NC(=O)Cn1c(=O)n(Cc2ccccc2)c(=O)c2sc3ccccc3c21, the survival is reported as inactive: 65%. With CCOc1ccc(C(=O)NCC(c2ccco2)S(=O)(=O)c2cccs2)cc1 (stereo not drawn) the survival was inactive: 95%. With COc1cc(OC)cc(C(=O)Nc2ccc3nc(Nc4cccc(C(F)(F)F)c4)cc(C)c3c2)c1 the survival was inactive: 70%. In the case of C#CCn1c(C2CC(=O)N(c3ccc(OCC)cc3)C2)nc2ccccc21 (stereo not drawn), the survival is reported as inactive: 62%. For O=C(NCc1ccc(F)cc1)c1cnc(N2CCCCC2)c2ccccc12, the survival was inactive: 88%. For CCCOc1ccc(CNC(=O)C2CCCN(c3nc4c(C)cc(C)cc4s3)C2)cc1 (stereo not drawn), the survival was inactive: 93%. c1ccc2c(c1)nc1n2CCC1 was tested, and the survival was inactive: 96%. For COc1ccc(NC(=O)Cn2c(=O)n(-c3cccc(C(F)(F)F)c3)c(=O)c3sccc32)cc1, the survival was inactive: 88%. With Cc1ccc(C)c(N2C(=O)CS/C2=N\NC(=O)c2ccc(S(=O)(=O)N3CCCC3)cc2)c1 the survival was inactive: 98%. For O=C(NCC(c1ccc(Cl)cc1)N1CCCCC1)c1ccccc1F (stereo not drawn), the survival was inactive: 88%. COc1ccccc1N1CCN(C(=O)CSc2n[nH]c(-c3ccccc3Cl)n2)CC1 was tested, and the survival was inactive: 88%. In the case of CCOc1ccc(OCC)c(NC(=O)CCc2nc3cccnc3n2-c2ccccc2)c1, the survival is reported as inactive: 72%. CCC1CN(C(=O)Nc2ccc(Br)cc2F)c2ccccc2S1 (stereo not drawn) was tested, and the survival was inactive: 90%. In the case of Cc1ccccc1NC(=O)[C@H](CSCc1ccccc1)N1Cc2ccccc2C1=O, the survival is reported as inactive: 64%. For CCc1ccc(S(=O)(=O)Nc2ccc(-c3ccc(N4CCCC4)nn3)cc2)cc1, the survival was inactive: 87%. COC(=O)C(NC(=O)CCc1c(C)nc2c(c(C)nn2-c2ccccc2)c1C)C(C)C (stereo not drawn) was tested, and the survival was inactive: 75%. With Cc1ccc(Cl)cc1NC(c1ccc(F)cc1)c1nnc(-c2ccccc2)o1 (stereo not drawn) the survival was inactive: 86%. In the case of Cc1ccc(NC(=O)C(CC(C)C)NS(=O)(=O)c2ccc3c(c2)oc(=O)n3C)c(C)c1 (stereo not drawn), the survival is reported as inactive: 86%. Cc1ccc2onc(CNC(=O)Nc3cc(F)ccc3F)c2c1 was tested, and the survival was inactive: 49%. With Cc1ccc2c(c1)Cc1c(nc(-c3ccc(Cl)cc3)nc1SCC(=O)N1CCCCC1)O2 the survival was inactive: 118%. In the case of Cc1ccn2c(Nc3ccc4c(c3)OCCO4)c(-c3cccs3)nc2c1, the survival is reported as inactive: 102%. For CCc1ccc(C2CC(=O)c3c([nH]c(C(=O)OCCOc4ccccc4)c3C)C2)cc1 (stereo not drawn), the survival was inactive: 77%. For O=C(CSc1nnc(-c2ccc(Cl)cc2)o1)Nc1ccc(F)cc1, the survival was inactive: 69%. COc1cccc2c1Oc1ncccc1N(c1ccc(C(=O)NCc3ccccc3Cl)s1)C2 was tested, and the survival was inactive: 91%. CC(=O)N1CCc2c(sc3c2c(=O)n(CCc2ccccc2)c(=O)n3CC(=O)Nc2ccc(C)c(F)c2)C1 was tested, and the survival was inactive: 70%. With Cc1cccc(NC(=O)c2ccc(F)c(S(=O)(=O)N3CCC4(CC3)OCCO4)c2)c1 the survival was inactive: 72%. For CC(C)NC(=O)C1CC(=O)N(c2ccc(Oc3ccccc3)cc2)C1 (stereo not drawn), the survival was inactive: 87%. For COc1ccc(NC(=O)Cn2c(=O)n(CCCC(=O)NCCc3ccc(C)cc3)c(=O)c3ccccc32)cc1Cl, the survival was inactive: 97%. For Cc1ccc(CCNC(=O)c2ccc3c(c2)N(Cc2ccccc2)C(=O)c2ccccc2S3=O)cc1 (stereo not drawn), the survival was inactive: 85%. COc1ccc(N2CCN(c3ncnc4onc(-c5ccc(F)cc5)c34)CC2)cc1 was tested, and the survival was inactive: 86%. For COc1cc(OC)c(NC(=O)N2CCc3cc(OC)c(OC)cc3C2CC(=O)O)cc1Cl (stereo not drawn), the survival was inactive: 89%. For CC(C)c1ccc(C2c3c(-c4ccccc4O)n[nH]c3C(=O)N2Cc2ccncc2)cc1 (stereo not drawn), the survival was inactive: 88%. CCCCOC(=O)CSc1nnc(-c2ccc(C)cc2)o1 was tested, and the survival was active: 12%. With CC(C)Cn1c(=O)c2ccccc2n2c(CCC(=O)N3CCN(c4ccccc4)CC3)nnc12 the survival was inactive: 104%. With COc1ccc(C(=O)Nc2nnc(C)s2)cc1 the survival was inactive: 77%. For Cc1ccc(NC(=O)CCC(=O)N2Cc3ccccc3Oc3ncccc32)cc1F, the survival was inactive: 70%. With O=C(NCc1ccc(F)cc1)c1ccc2nc(N3CCCCC3)sc2c1 the survival was inactive: 88%. In the case of CCOc1ccc(NC(=O)c2ccc3c(c2)CCN3S(=O)(=O)c2ccc(Cl)cc2)cc1, the survival is reported as inactive: 78%. In the case of Cc1cccc(Cn2c(=O)n(CCC(=O)NCCc3ccc(Cl)cc3)c(=O)c3sccc32)c1, the survival is reported as inactive: 73%. CNC(=S)N(Cc1cc2cc(OC)ccc2[nH]c1=O)CC1CCCO1 (stereo not drawn) was tested, and the survival was inactive: 105%. In the case of O=C(NCC(c1ccc2c(c1)OCO2)N1CCOCC1)C(=O)Nc1cccc(Cl)c1 (stereo not drawn), the survival is reported as inactive: 98%. With Cc1cc(-c2ccc(C)c(S(=O)(=O)NCC3CCN(Cc4ccc(F)cc4)CC3)c2)on1 the survival was inactive: 77%. For Fc1cccc(Cl)c1Cn1c(-c2cccs2)nc2ccccc21, the survival was active: 21%. For O=C(NC1CCCCC1)NC1CCN(Cc2nnnn2Cc2ccco2)CC1, the survival was inactive: 85%. In the case of COc1ccc(OC)c(CNC(=O)c2nn(C)c3c2CSc2ccccc2-3)c1, the survival is reported as inactive: 92%. In the case of CCOc1ccc(CNC(=O)c2cc(=O)[nH]c3ccc(S(=O)(=O)N4CCCC4)cc23)cc1, the survival is reported as inactive: 94%. With COc1ccc(C(=O)Nc2nc3c(s2)CCCC3)cc1Cl the survival was inactive: 53%. In the case of COc1ccc(Cl)cc1CNCCSc1nnnn1C, the survival is reported as inactive: 70%. In the case of Cn1c(=O)c2c(-c3ccccc3)n3c(c2n(C)c1=O)C(c1ccco1)Nc1ccccc1-3 (stereo not drawn), the survival is reported as inactive: 77%. With CCOc1cccc(NC(=O)CSc2ncc(-c3ccccc3)[nH]2)c1 the survival was inactive: 49%. With CCCn1cc(S(=O)(=O)c2ccc(CC)cc2)c(=O)c2cc(F)c(N(CC)CC)cc21 the survival was inactive: 81%. With Cc1cccc(N2CCN(C(=O)c3ccc4c(c3)N(Cc3cccc(Cl)c3)C(=O)c3ccccc3S4=O)CC2C)c1 (stereo not drawn) the survival was inactive: 83%.
